Measurements: PubChem BioAssay (NCI)
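In this assay, cells in 96-well plates receive the compound at five concentrations for 48 hours. Endpoints are linearly interpolated between the surrounding concentrations. GI50 marks 50% less growth. The concentration for full growth arrest is given as TGI.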

Test system: NCI-H322M lung
Experiment: NCI tumour cell line growth inhibition, 48 h

SMILES | GI50 [µM] | TGI [µM]
Cc1cccc2sc(/N=C(\N)C(Br)Br)nc12 | 3.27 | 14.2
O=C(N/N=C/c1ccc([N+](=O)[O-])o1)c1[nH]c2ccc(Br)cc2c1-c1ccccc1 | 1.36 | 29.8
Fc1ccc(-c2cc3nc(C(Cl)Cl)nc(-c4ccco4)n3n2)cc1 | 0.633 | 3.5
CCOC(=O)c1c(NC(=O)c2ccc(C(F)(F)F)cc2)sc2c(CN3CCN(C)CC3)c(O)ccc12 | 1.86 | 3.82
COc1ccc(Cn2cc3c(c2-c2cc(OC)c(OC)c(OC)c2)CCCc2cnoc2-3)cc1 | 3.28 | > 100
